# Measurements from PubChem BioAssay AID1347120 (National Center for Advancing Translational Sciences (NCATS), 2019).
# The campaign covered roughly 390,000 compounds. About 930 (0.24%) were called active. The shares of active, inactive and inconclusive entries below differ from those in the screen. Calls come from the whole dose curve; as a rule, active = well fitted activation curve with a large enough effect; inconclusive = small, poorly fitted or top-dose-only effect; inactive = no such curve, though single readings can be large or run the other way. Potencies of inconclusive entries are doubtful fits and often do not repeat.
# Test: qHTS for Suppressors of FUS Proteinopathy: Primary screen using FUS-linked yeast assay; note: nearly all actives have a fitted effect of over 55% in size;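 for growth rescue (activation): plate controls were DMSO vehicle for no effect and reference control for full effect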
# Conditions: S. cerevisiae FUS-expressing, OD600, 24 h; Potency: growth rescue; growth rescue (activation): at 76.6 µM (top of the series)
# Summary of the method: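 Yeast expressing FUS under galactose induction, OD 0.005 in 2% galactose medium; compounds in a dilution series, 24 h at 30C. Growth rescue by absorbance at 600 nm; CP55940 positive control, DMSO negative.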
# Potency is the fitted concentration of half-maximal effect; tags give direction and shape of the fitted curve.
SMILES,Potency,growth rescue (activation)
C#Cc1cc(N2CCN(C(=O)c3ccoc3)CC2)n2nc(-c3cccc(Cl)c3)cc2n1,"inconclusive: 25.1 µM [activator, single point]",–
CC[C@]12c3[nH]c4ccc(Cl)cc4c3CCN1C(=O)[C@@H](CC(=O)NCc1cccc(C(F)(F)F)c1)C[C@@H]2C(=O)N1CCN(C(=O)C2CC2)CC1,"inconclusive: 31.6 µM [activator, single point]",–
Cc1cc(OCC(=O)N(Cc2ccccc2)C2CCS(=O)(=O)C2)ccc1Cl (stereo unspecified),"inconclusive: 15.8 µM [activator, partial curve]",–
CCC(C)Sc1ccc([C@@H]2[C@@H]3C(=O)N(C)C(=O)[C@@H]3[C@]3(C(=O)OC)CCCCN23)cc1OC (stereo partly specified),inactive,–
CCn1nc(NS(=O)(=O)c2cccc3nonc23)c2cc3ccc(C)cc3nc21,inactive,–
O=C1[C@H]2[C@@H](c3ccccc3)N[C@]3(CCCN(Cc4ccc(C(F)(F)F)cc4)C3=O)[C@H]2C(=O)N1Cc1ccccc1,"inconclusive: 44.7 µM [activator, single point]",–
Cc1ccc(S(=O)(=O)n2ccc(-c3c(-c4ccc(Cl)cc4)noc3C)n2)cc1,inactive,–
COc1ccc(-c2ccc(CN3C(C)C(=O)N(Cc4cn(CCC5OCCO5)nn4)CCS3(=O)=O)cc2)cc1 (stereo unspecified),"inconclusive: 20 µM [activator, single point]",–
CC1=CC(C2CC(=O)N(c3ccc(C)cc3)C2=O)CC2C(=O)N(c3ccc(C)cc3)C(=O)C12 (stereo unspecified),"inconclusive: 22.4 µM [activator, single point]",–
Nc1nc2c3ccccc3nc(C3CC3)n2n1,inactive,–
O=C(NC1CCCCN(Cc2cccc(C(F)(F)F)c2)C1=O)c1ccc(Cl)cc1 (stereo unspecified),"inconclusive: 35.5 µM [activator, single point]",–
COc1cc2ccccc2cc1C(=O)N1CCN(c2nc3c(C)cc(C)cc3s2)CC1,"inconclusive: 22.4 µM [activator, single point]",–
CC(C)(C)C(=O)Nc1ccccc1N1CCN(C(=O)c2ccc(Cl)cc2)CC1,"inconclusive: 35.5 µM [activator, single point]",–
CCOc1ccc(-n2cc(C(=O)Nc3ccccc3OCC)c3cc(OC)c(OC)cc3c2=O)cc1,inactive,–
CCOC(=O)C1=C(C)N=c2s/c(=C/c3ccc(OCC(=O)O)cc3)c(=O)n2C1c1ccc(F)cc1 (stereo unspecified),"inconclusive: 50.1 µM [activator, single point]",–
Cc1noc(C)c1-c1ccc(C(=O)NCCc2ccccc2)c2occc12,"inconclusive: 31.6 µM [activator, single point]",–
Oc1ccccc1-c1nc(N2CCCC2)c2ccccc2n1,inactive,–
c1coc(CCNc2ncnc3ccc(-c4ccc5c(c4)OCO5)cc23)c1,"inconclusive: 6.31 µM [activator, partial curve, poor fit]",–
CS(=O)(=O)NCCSc1nnnn1-c1ccccc1,"inconclusive: 35.5 µM [activator, partial curve, poor fit]",–
CC(C)c1ccc(NC(=O)c2ccc(F)c(S(=O)(=O)N3CCCC3)c2)cc1,inactive,–
Cc1ccc(S(=O)(=O)/C(C#N)=C/c2c(N3CCC(C(N)=O)CC3)nc3c(C)cccn3c2=O)cc1,"inconclusive: 25.1 µM [activator, partial curve, poor fit]",–
Cc1ccc(C2=N/C(=C\c3ccc(F)cc3)C(=O)N2)cc1,inactive,–

SMILES,Potency,growth rescue (activation)
O=C(CSc1nccn1-c1cccc(Cl)c1)Nc1cccc(C(F)(F)F)c1,inactive,–
CN1CCN(CC(=O)Nc2ccccc2C(F)(F)F)CC1,inactive,–
CN(Cc1ccccc1)C(=O)CCS(=O)(=O)c1cc(Br)cc2c1N(C(=O)C1CC1)CC2,inactive,–
CCOC(=O)[C@@]12CCCC=C1N(CCc1ccc(Cl)cc1)C(=O)[C@H]2CC(=O)NCCc1ccccc1OC,"inconclusive: 22.4 µM [activator, partial curve, poor fit]",–
COc1ccc(OCc2nnc3n2N=C(c2ccc(Br)cc2)CS3)cc1,"inconclusive: 25.1 µM [activator, partial curve, poor fit]",–
CCCCCCC(=O)O,inactive,–
O=C1CN(c2nc(-c3cccs3)nc3sc4c(c23)CCCC4)CCN1,active: 35.5 µM,–
O=C1c2cccc3c(N4CCCCC4)ccc(c23)C(=O)N1c1cccc(O)c1,inactive,–
CCOC(=O)CSC1=C(C#N)C(c2ccco2)C(C(=O)Nc2cccc(C(F)(F)F)c2)=C(C)N1 (stereo unspecified),"inconclusive: 14.1 µM [activator, partial curve]",–
COc1ccc(CNc2nc(S(=O)(=O)c3ccccc3)c(Cl)s2)cc1OC,inactive,–
COc1ccc(C(=O)CSc2nnc(C3CCCCC3)n2N)c(OC)c1,"inconclusive: 3.98 µM [activator, full curve]",–
C=CCn1c(SCC(=O)N2CCOCC2)nc2scc(-c3ccco3)c2c1=O,"inconclusive: 39.8 µM [activator, partial curve, poor fit]",–
CCCN1C(=O)C(O)(CC(=O)c2ccc(CC)cc2)c2cc(Br)ccc21 (stereo unspecified),"inconclusive: 28.2 µM [activator, single point]",–
O=C(Nc1ccccc1N1CCN(C(=O)c2ccccc2)CC1)c1ccc2c(c1)OCO2,"inconclusive: 44.7 µM [activator, single point]",–
CCOc1ccc(CCNC(=O)COC(=O)c2ccc(OC(C)C)cc2)cc1OCC,"inconclusive: 31.6 µM [activator, partial curve, poor fit]",–
COc1ccc(N2CCN(S(=O)(=O)CCNC(=O)Cc3ccc(-c4ccccc4)cc3)CC2)cc1,inactive,–
Cn1nnc(NC(=S)NC(=O)c2cccs2)n1,inactive,–
CCCc1oc2ccc(NS(=O)(=O)c3ccc(OC)cc3)cc2c1C(=O)OCC,"inconclusive: 28.2 µM [activator, partial curve, poor fit]",–
COc1ccccc1N1C(=O)C2C(c3ccccc3F)NN(C(=O)c3ccc(C)cc3)C2C1=O (stereo unspecified),"inconclusive: 39.8 µM [activator, single point]",–
Cc1ccc(C(CC(=O)Nc2ccc(C)cc2C)N2Cc3ccccc3C2=O)cc1 (stereo unspecified),"inconclusive: 50.1 µM [activator, single point]",–
O=C(COc1ncnc2sccc12)N1CCN(S(=O)(=O)c2ccc(Cl)cc2)CC1,"inconclusive: 12.6 µM [activator, partial curve, poor fit]",–
COc1cc(/C=N/Nc2ccccc2[N+](=O)[O-])cc(OC)c1O,inactive,–

SMILES,Potency,growth rescue (activation)
CC(C)c1ccc(/C=N/NC(=O)c2nnn(-c3nonc3N)c2CN2CCOCC2)cc1,"inconclusive: 10 µM [activator, partial curve, poor fit]",–
Clc1ccc(-c2n[nH]c3c2CCCC3)cc1,inactive,–
O=C(Cn1nc2c(cc1=O)CCCC2)NCc1ccccc1Cl,inactive,–
Cc1c(C(=O)N(C)C)c2cc(Cl)ccc2n1O,"inconclusive: 7.94 µM [activator, partial curve, poor fit]",–
CC1(CCc2ccccc2)NC(=O)N(Cc2nnc(-c3ccccc3Br)o2)C1=O (stereo unspecified),"inconclusive: 31.6 µM [activator, partial curve, poor fit]",–
Cc1cccc(-c2cccc3c4c([nH]c23)[C@@H]2C[C@H]3[C@@H](C(=O)N2CC4)[C@H](C)ON3C)c1,"inconclusive: 31.6 µM [activator, single point]",–
O=C(CN1C(=O)COc2ccc(S(=O)(=O)N3CCCCCC3)cc21)N1CCN(c2ccccc2)CC1,"inconclusive: 25.1 µM [activator, partial curve, poor fit]",–
Cc1nc(SCC(=O)N2CCN(c3ccccc3)CC2)c2oc3ccccc3c2n1,"inconclusive: 22.4 µM [activator, single point]",–
CCCN(C(=O)CCn1cnc2onc(-c3ccc(F)cc3)c2c1=O)c1ccccc1C,"inconclusive: 14.1 µM [activator, partial curve, poor fit]",–
COc1cccc(NC(=O)CN(C)C(=O)/C=C/c2cn(-c3ccccc3)nc2-c2ccc(OC)c(OC)c2)c1,active: 39.8 µM,–
COc1ccc(-c2[nH]ncc2/C=N\NC(=O)c2ccc(C(C)(C)C)cc2)cc1OC,"inconclusive: 17.8 µM [activator, partial curve, poor fit]",–
COc1ccc(N(CC(=O)Nc2ccc(Cl)cc2C)S(=O)(=O)c2ccccc2)c(OC)c1,"inconclusive: 44.7 µM [activator, single point]",–
COc1cc(-c2nnc(SCC(=O)N3CCCc4ccccc43)o2)cc(OC)c1OC,"inconclusive: 15.8 µM [activator, partial curve, poor fit]",–
CC1(c2nnc(-c3ccc(F)cc3)o2)CC(c2c(Cl)cccc2Cl)=NO1 (stereo unspecified),inactive,–
CCCCN(C)c1ncnc2c1cnn2-c1cccc(Cl)c1,inactive,–
Cc1ccc(NC(=O)CSc2nnc(-c3cc4occc4n3C)n2-c2ccccc2C)cc1F,"inconclusive: 6.31 µM [activator, partial curve, poor fit]",–
CCn1c(C(=O)Nc2cc(C)cc(C)c2)cc2sc(Cl)cc21,inactive,–
Cc1ccccc1C(=O)Nc1nnc(S(=O)(=O)N2CCCc3ccccc32)s1,inactive,–
CC1(C)C(c2ccccc2)=NC(c2ccccc2)N1O (stereo unspecified),–,inconclusive: 50% [activator]
COc1ccc(C(=O)CCC(=O)Nc2ccc(N3CCCCC3)cc2)cc1OC,"inconclusive: 25.1 µM [activator, single point]",–
CCCn1c(NC(=O)c2ccc(F)cc2)nc2ccccc21,inactive,–
O=C(CSc1ncnc2scc(-c3ccc(F)cc3)c12)c1ccc2c(c1)OCCO2,"inconclusive: 31.6 µM [activator, single point]",–
